Reference: patent US12613249B2, “Use of Aβ34 to assess Alzheimer's disease progression” (THE ROYAL INSTITUTION FOR THE ADVANCEMENT OF LEARNING / …, priority 2019, dated 2026)

Columns and labels:
Aβ34 [1] = target: T1, Aβ34 (Homo sapiens, UniProt P05067, G704A); test: Surface plasmon resonance, synthetic Aβ peptides binding to captured mab34; conditions: SPR, Aβ34 peptide variants
T1 construct: purchased PSL, Germany; host or cells: chemical synthesis
Description: (§1) Using a BIACORE T200 system (GE Healthcare Bio-Sciences Aβ, Upsala, Sweden; v2.0 Control and v1.0 Evaluation software), SPR experiments were performed at 25° C. using filtered (0.2 μm) and degassed HBS-EP+ buffer (10 mM HEPES PH 7.4; 150 mM NaCl; 3 mM EDTA; 0.05% (v/v) Tween™-20). Using Biacore's Amine Coupling Kit, Mouse Antibody Capture Kit, and CM5 sensors, an anti-mouse Fc antibody (14 μg/mL in 10 mM sodium acetate pH 5.0) was immobilized to the flow cells (˜8000 RU each) as recommended by GE. To assess binding specificity, a variety of Aβ peptides (0-2 μM; 4-fold dilution series) were titrated over reference (anti-mouse Fc antibody only) and active (˜1000 RU mab34 captured to anti-mouse Fc antibody) surfaces in single-cycle kinetic mode (25 uL/min.×5 min. association+10 min. dissociation). Between each sample series, surfaces were regenerated at 50 uL/min. using two 30 sec pulses of Pierce Gentle Ag/Ab Elution Buffer pH 6.6 (Thermo Scientific #21027) as well as 10 mM glycine pH 1.7. To assess binding affinity, Aβ34 peptide titrations (0-1.6 µM; 3-fold dilution series) were performed in the similar manner using multi-cycle kinetic mode (25 uL/min.×10 min. association+20 min. dissociation). All of the double-referenced data presented are representative of duplicate injections acquired from at least three independent trials. […]

Aβ34 [2] = target: T2, Aβ34 (Homo sapiens, UniProt P05067); test: as above
T2 construct: purchased PSL, Germany; host or cells: chemical synthesis
Description: as §1

Aβ34 [3] = target: T2, Aβ34; test: MSD electrochemiluminescence immunoassay based on mab34; assay type: binding; conditions: MSD assay, n=3
Description: Using the ELISA Conversion Kit from Meso Scale Discovery (MSD, USA), an electrochemiluminescence-based assay was developed (neo-epitope specific Aβ34 and the sulfo-tagged 6E10 (binds to the N-terminus of human Aβ) or the sulfo-tagged 4G8 for murine samples (binds to the mid domain of Aβ)). […] After three washing steps with PBS-T for 1 min. at 22° C., 150 μL 2×MSD read buffer were added per well. All plates were read using a MSD QuickPlex SQ 120 Imager and data analyzed using MSD Workbench® software. […]
In the WORKBENCH® software, lower limit of detection LLOD was determined as the analyte concentration equivalent to the signal that is 2.5× standard deviation (SD) above the back-fit signal of the blank. Assay performance (inter-plate, intra-plate CV, LLOD, and upper limit of detection (ULOD)) were assessed using peptide calibrators in MSD diluent 35 (FIG. 2e). […]

B1: mab34: mouse monoclonal neo-epitope antibody against the C-terminus of Aβ34; heavy chain variable SEQ ID NO: 2, light chain variable SEQ ID NO: 4 (antibody, V domains shown)
VH: VKLVESGGGLVKPGGSLKLSCAASGFTFSTYAMSWVRQTPEKRLEWVASISSGGNTYYPDSVKGRFTISRDNARHILYLQMSSLRSEDTAMYYCARDSYYFGNSVYYAMDYWGQGTSVTVSS
VL: DVVMTQTPFILSVTIGQPASISCKSSQSLLDSDGKTYLNWLFQRPGQSPKRLIYQVSKVDAGVPDRFSGSGSGTDFTLKISRVEAEDLGIYYCWQGTHFPRTFGGGTKLEIKR
modifications: heavy chain variable region sequence of AB34 antibody; Aritificial sequence; light chain variable region sequence of AB34 antibody
recognition of G33A modified neo-epitope (Aβ34 [1]): not recognized
affinity of binding to the C-terminus of Aβ34 (Aβ34 [2]): nanomolar affinity
cross-reactivity against Aβ35, Aβ38, Aβ40, or Aβ42 (Aβ34 [3]): without any significant cross-reactivity
